Measured values taken from the antibiotic and cytotoxicity screens of Wong et al. (2023).
The other results are listed elsewhere or left out.

Tests used:
HSkMC = human skeletal muscle cells; experiment: cytotoxicity call (relative viability < 0.9); conditions: 10 µM
HepG2 = experiment: cytotoxicity call (relative viability < 0.9); conditions: 10 µM
S. aureus RN4220 = experiment: growth inhibition call (relative growth <= 0.2); conditions: 50 µM

SMILES	cytotoxicity call (HSkMC)	cytotoxicity call (HepG2)	growth inhibition call (S. aureus RN4220)
CN1CCN(C(=O)[C@H]2C[C@H]3CN(c4ncc(F)cn4)C[C@@H]3N2C)CC1	inactive	inactive	inactive
C[C@H](CO)N1C[C@H](C)[C@@H](CN(C)C(=O)NC2CCCCC2)Oc2ccc(NS(C)(=O)=O)cc2CC1=O	inactive	inactive	inactive
CC(=O)c1c(C)nn(CC(=O)O)c1C	inactive	inactive	inactive
CC1=C2C/C=C(\C)[C@H](O[C@H]3O[C@@H](CO)[C@@H](O)[C@@H](O)[C@@H]3O)C/C=C(\C)C[C@@H]2OC1=O	inactive	inactive	inactive
CC(=O)C1CCC2C3CC=C4CC(O)CCC4(C)C3CCC12C (stereo unspecified)	inactive	inactive	inactive
C[C@@H]1CN([C@H](C)CO)C(=O)c2cc(NC(=O)c3ccncc3)ccc2O[C@H]1CN(C)Cc1ccc(Oc2ccccc2)cc1	inactive	inactive	inactive
C[C@H]1CCCCO[C@@H](CN(C)Cc2ccncc2)[C@@H](C)CN([C@@H](C)CO)C(=O)c2cc(NC(=O)c3ccccc3)ccc2O1	inactive	inactive	inactive
Cc1cc(C(=O)Nc2cccc3c2O[C@H](CN(C)Cc2ccc4c(c2)OCO4)[C@H](C)CN([C@H](C)CO)C3=O)n(C)n1	inactive	inactive	inactive
C[C@H](CO)N1C[C@H](C)[C@H](CN(C)Cc2ccc3c(c2)OCO3)OCCCC[C@H](C)Oc2ccc(NC(=O)NC3CCCCC3)cc2C1=O	inactive	active	inactive
C[C@@H]1CN([C@H](C)CO)C(=O)c2cc(NC(=O)Cc3ccccc3)ccc2O[C@@H](C)CCCCO[C@H]1CN(C)S(=O)(=O)c1ccc(Cl)cc1	inactive	inactive	inactive
CC(C)NC(=O)N(C)C[C@@H]1Oc2ccc(NC(=O)NC3CCCCC3)cc2CC(=O)N([C@H](C)CO)C[C@@H]1C	inactive	inactive	inactive
COc1cccc(-c2cn(CC[C@@H]3CC[C@H](NS(=O)(=O)c4ccccc4Cl)[C@H](CO)O3)nn2)c1	inactive	inactive	inactive
O=C1C[C@H]2[C@@H](CCN2c2cnccn2)N1	inactive	inactive	inactive
C[C@H](CO)N1C[C@H](C)[C@@H](CN(C)Cc2ccc(Cl)c(Cl)c2)Oc2ccc(NC(=O)Cc3cn(C)c4ccccc34)cc2C1=O	inactive	inactive	inactive
C[C@H]1CCCCO[C@H](CN(C)Cc2ccc(C(=O)O)cc2)[C@@H](C)CN([C@@H](C)CO)C(=O)c2cc(NC(=O)Nc3ccc(F)cc3)ccc2O1	inactive	inactive	inactive
CN(C)S(=O)(=O)n1nnc2ccccc21	inactive	inactive	inactive
C[N+](C)(C)CCO.Cn1c(=O)c2[n-]cnc2n(C)c1=O	inactive	inactive	inactive
COc1ccc(CN(C)C[C@@H]2OCCCC[C@H](C)Oc3ccc(NS(=O)(=O)c4c(C)noc4C)cc3C(=O)N([C@H](C)CO)C[C@H]2C)cc1	inactive	inactive	inactive
C[C@@H](N)c1ccc(C(=O)Nc2ccnc3[nH]ccc23)cc1	inactive	active	inactive

SMILES	cytotoxicity call (HSkMC)	cytotoxicity call (HepG2)	growth inhibition call (S. aureus RN4220)
C[C@H]1CN([C@@H](C)CO)C(=O)c2cccc(NC(=O)C3CCCCC3)c2O[C@H]1CN(C)Cc1ccc(C(F)(F)F)cc1	inactive	inactive	inactive
COc1cccc(S(=O)(=O)N(C)C[C@H]2Oc3cc(C4=CCCC4)ccc3S(=O)(=O)N([C@H](C)CO)C[C@H]2C)c1	inactive	inactive	inactive
Cc1ccc(S(=O)(=O)Nc2cccc3c2O[C@@H](CN(C)C(=O)Nc2ccc(C(F)(F)F)cc2)[C@@H](C)CN([C@H](C)CO)C3=O)cc1	inactive	inactive	inactive
C[C@H](CO)N1C[C@H](C)[C@H](CN(C)S(=O)(=O)c2ccc(F)cc2)Oc2ccc(N(C)C)cc2CC1=O	inactive	inactive	inactive
COc1ccc(C#Cc2cnc3c(c2)C(=O)N([C@H](C)CO)C[C@H](C)[C@@H](CN(C)C(=O)CC2CC2)O3)cc1	inactive	inactive	inactive
Cc1ccc(S(=O)(=O)Nc2ccc3c(c2)C(=O)N([C@@H](C)CO)C[C@H](C)[C@@H](CN(C)Cc2ccccc2)OCCCC[C@H](C)O3)cc1	inactive	inactive	inactive
CN(C)CCCNC(=O)C[C@H]1CC[C@H]2[C@H](COc3ccc(NS(C)(=O)=O)cc3C(=O)N2C)O1	inactive	inactive	inactive
C[C@@H]1CN([C@H](C)CO)C(=O)c2cc(NS(C)(=O)=O)ccc2O[C@@H](C)CCCCO[C@H]1CN(C)S(=O)(=O)c1cn(C)cn1	inactive	inactive	inactive
C[C@H](CO)N1C[C@H](C)[C@H](CN(C)Cc2ccc(C(=O)Nc3ccccc3N)cc2)Oc2c(NC(=O)Nc3ccccc3)cccc2C1=O	inactive	inactive	inactive
Cc1ccc(S(=O)(=O)Nc2ccc3c(c2)C(=O)N([C@@H](C)CO)C[C@H](C)[C@@H](CN(C)Cc2ccncc2)OCCCC[C@H](C)O3)cc1	inactive	inactive	inactive
NC(=O)N[C@@H]1CC(=O)N(c2ccccc2)C1	inactive	inactive	inactive
Cc1nn(C)c(Cl)c1S(=O)(=O)NC(=O)[C@@]1(C)CCN1C(=O)c1ccccc1CCc1ccccc1	inactive	inactive	inactive
C[C@@H]1CN([C@@H](C)CO)S(=O)(=O)c2ccc(C#C[C@@H](C)O)cc2O[C@H]1CN(C)C(=O)c1ccccc1	inactive	inactive	inactive
N=C(N)SCc1csc(N)n1	inactive	inactive	inactive
NCc1cc(-c2ccccc2Cl)no1	inactive	inactive	inactive
Cc1noc(C)c1NC(=O)Nc1ccc2c(c1)CC(=O)N([C@@H](C)CO)C[C@H](C)[C@H](CN(C)S(=O)(=O)c1cn(C)cn1)O2	inactive	inactive	inactive
Cc1noc(C)c1S(=O)(=O)Nc1ccc2c(c1)C(=O)N([C@@H](C)CO)C[C@H](C)[C@H](CN(C)Cc1ccccc1)OCCCC[C@H](C)O2	inactive	inactive	inactive
COc1ccc(S(=O)(=O)Nc2ccc3c(c2)CC(=O)N([C@@H](C)CO)C[C@@H](C)[C@@H](CN(C)C(=O)NC(C)C)O3)cc1	inactive	inactive	inactive
OCCOCc1nnn2c1CN(c1ncccn1)CCC2	inactive	inactive	inactive

SMILES	cytotoxicity call (HSkMC)	cytotoxicity call (HepG2)	growth inhibition call (S. aureus RN4220)
CCOC(=O)[C@@H]1CCCCN1C(=O)C(=O)OC	inactive	inactive	inactive
COc1cccc(NC(=O)N(C)C[C@H]2Oc3ncc(Br)cc3C(=O)N([C@H](C)CO)C[C@H]2C)c1	inactive	inactive	inactive
CNC(=O)CN(CCN(CCN(CC(=O)[O-])CC(=O)NC)CC(=O)[O-])CC(=O)[O-].[Gd]	inactive	inactive	inactive
C[C@H](CO)N1C[C@H](C)[C@H](CN(C)C(=O)C2CCC2)Oc2cc(C#Cc3ccncc3)ccc2S1(=O)=O	inactive	active	inactive
C[C@@H]1CCCCO[C@H](CN(C)S(=O)(=O)c2ccccc2)[C@H](C)CN([C@@H](C)CO)C(=O)c2cc(NC(=O)CCC(F)(F)F)ccc2O1	inactive	inactive	inactive
COc1ccccc1S(=O)(=O)N(C)C[C@@H]1OCc2cnnn2CCCC(=O)N([C@@H](C)CO)C[C@@H]1C	inactive	inactive	inactive
C[C@@H]1CN([C@H](C)CO)C(=O)c2cccc(NC(=O)c3cnccn3)c2O[C@H]1CN(C)S(=O)(=O)c1cccs1	inactive	inactive	inactive
C[C@H](CO)N1C[C@H](C)[C@H](CN(C)Cc2ccncc2)OCCCC[C@H](C)Oc2ccc(NC(=O)C3CCCCC3)cc2C1=O	inactive	inactive	inactive
C[C@@H]1CCCCO[C@@H](CN(C)C(=O)CCC(F)(F)F)[C@@H](C)CN([C@H](C)CO)C(=O)c2cc(NC(=O)c3ccccc3)ccc2O1	inactive	inactive	inactive
NCCCCCNC(=O)[C@@H]1C[C@@H]2C(=O)N[C@@H](Cc3ccccc3)C(=O)N2[C@@H]1c1cccc(OCCO)c1	inactive	inactive	inactive
C[C@H]1CN([C@@H](C)CO)C(=O)c2cc(NC(=O)CCN3CCOCC3)ccc2O[C@@H]1CN(C)S(C)(=O)=O	inactive	inactive	inactive
NC(CO)C(=O)O (stereo unspecified)	inactive	active	inactive
O=C(C[C@@H]1CC[C@@H]2[C@H](COC[C@@H](O)CN2S(=O)(=O)c2cccc(Cl)c2)O1)NCCCN1CCOCC1	inactive	inactive	inactive
COc1ccc(S(=O)(=O)Nc2ccc3c(c2)C(=O)N([C@@H](C)CO)C[C@H](C)[C@@H](CN(C)C(=O)Nc2cccc4ccccc24)O3)cc1	inactive	inactive	inactive
Cc1ccc(/C=N/N(C)C2=NCCN2)o1	inactive	inactive	inactive
C[C@@H]1CN([C@H](C)CO)C(=O)c2cc(C#Cc3cccnc3)cnc2O[C@H]1CN(C)S(C)(=O)=O	inactive	inactive	inactive
O=C1O[C@@H](c2ccccc2)[C@@H](c2ccccc2)N2[C@@H](c3ccc(OCCO)cc3)[C@]3(C(=O)Nc4ccccc43)[C@@H](C(=O)Nc3nc4ccccc4s3)[C@H]12	inactive	inactive	inactive
COc1ccc(CN(C)C[C@@H]2Oc3c(NC(=O)CCCCCC(=O)Nc4ccccc4N)cccc3C(=O)N([C@H](C)CO)C[C@H]2C)cc1	inactive	inactive	inactive
O=C(C[C@H]1C=C[C@H](NC(=O)Nc2cc(F)ccc2F)[C@@H](CO)O1)NCCCN1CCOCC1	inactive	inactive	inactive
